Each structure is given as a SMILES string. Values joined by “and” are separate entries in the source; they are usually repeats but may differ in a detail not shown here. Identical values can stand only once.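 1) Cells in 96-well plates. 2) Compound, 48 h, 5 concentrations. 3) Linear interpolation between surrounding doses. 4) Unreached endpoint = highest concentration. Abbreviation: GI50, concentration required for 50% inhibition of growth. TGI marks complete inhibition of growth.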 Peptide text beside a SMILES is read from it. * marks the point of attachment. Boc = CC(C)(C)OC(=O)*; nBu = CCCC*

The assay relates to NCI-H322M lung. The assay is described as follows: NCI-60 cell line screen, 48 h.

`COc1ccccc1C(=O)N(Cc1ccccc1)c1ccc(Cl)c(C(=O)OC(C)C)c1` displayed a TGI of more than 100 µM.

Turning to `O=C(O)CCCCC1CCSS1` (stereo unspecified), the TGI is more than 100 µM.

For `COC(=O)c1ccc2c(c1)CC1(C2)Cc2ccccc2C1=O` (stereo unspecified), the TGI is more than 100 µM.

For the compound `CC(C)OP(=O)(O)c1ncc(-c2ccc(C(F)(F)F)cc2)c(NC2CCCCCC2)n1`, the GI50 is more than 100 µM and the TGI is more than 100 µM.

As to `O=C1Oc2ccccc2C(=O)/C1=C/N1C(=O)CNC1=S`, the TGI was more than 100 µM.

Compound `O=C1c2c(Br)sc(Br)c2[C@@H](O)[C@H]1O` returned a TGI of 30.9 µM.

`Cc1ccc2ccc(-c3ccccc3)c3c2c1C(=O)c1ccccc1C3=O` displayed a TGI of more than 100 µM.

Consider `CC(C)(C)OC(=O)N1CCCC1C(=O)NC(c1ccccc1)c1ccccc1` (stereo unspecified), for which the TGI was more than 100 µM.

In the case of `COc1ccccc1N/C(SCc1ccccc1)=C(/C(Cl)=C(Cl)Cl)[N+](=O)[O-]`, the TGI is more than 100 µM.

`Cc1c(/C=N/NC(=S)N2CCCCC2)c(=O)n(-c2ccccc2)n1C` returned a TGI of more than 100 µM.

Take `COc1cccc(-c2nc3sccn3c2-c2ccnc(NCCCNS(=O)(=O)c3ccccc3)c2)c1`: the GI50 is 4.43 µM and the TGI was more than 100 µM.

In the case of `N#[N+]c1ccc(Nc2ccccc2)cc1`, the GI50 is more than 50 µg/mL and the TGI is more than 50 µg/mL.

Consider `COc1cc(NC2CCCCC2O)c2nc(-c3ccc(Cl)cc3)ccc2c1` (stereo unspecified), for which the GI50 is 16.8 µM and the TGI was more than 100 µM.

In turn, `O=C(Cn1c2ccc(Br)cc2c2nc3ccccc3nc21)Nc1ccccc1` yielded a TGI of more than 100 µM.

Regarding `NCCCN=c1ccc2c3c1c(O)c1c(O)ccc(=O)c1c3[nH]n2CCNCCO`, the GI50 is 3.7 µM; the TGI is 15.1 µM and 16.8 µM.

For `CCn1c(-c2nonc2N)nc2cnc(Oc3cccc(NC(=O)c4ccc(N(C)C)cc4)c3)cc21`, the GI50 was 3.03 µM and the TGI is more than 25 µM.

The compound `CC(Oc1ccccc1Cl)C(=O)NN1C(=O)CC(=O)N(c2ccc(Cl)cc2)C1=S` (stereo unspecified) came in with a TGI of more than 100 µM.

Regarding `CC(=O)Nc1cccc(N2C(=O)/C(=C\c3cccc(Oc4ccccc4)c3)SC2c2ccccc2)c1` (stereo unspecified), the TGI was more than 100 µM.

In turn, `COc1ccc(CCn2cncn2)cc1` displayed a TGI of more than 100 µM.

`CCCc1nc2c(n1CC)C(=O)c1ccccc1C2=O` had a TGI of more than 100 µM.

Regarding `O=P(NCCCO)(OCc1ccccc1)N(CCCl)CCCl` (stereo unspecified), the TGI was more than 100 µM.

Consider `C[As](C)SC1OCC(O)C(O)C1O` (stereo unspecified), for which the GI50 was 2.66 µM and the TGI was found to be 10.7 µM.

In turn, `CNC(=O)OCc1nc(SC)n(C)c1COC(=O)NC` yielded a TGI of 514 µM.

`O=C1NC2(CCNCC2)Oc2ccccc21` displayed a TGI of more than 100 µM.

In turn, `NC1=NCN(C2OC(CO)C(O)C2O)C(=O)N1` (stereo unspecified) came in with a TGI of 1690 µM.

`CCN(c1ccccc1)[C@H]1C(=O)N(c2ccc([N+](=O)[O-])cc2)[C@H]1c1ccc(OC)cc1` had a TGI of more than 100 µM.

On to `COc1ccc2[nH]c3c(c2c1)[C@H]1CCC(C(C)(C)C)C[C@H]1[C@H]1C(=O)N(c2ccccc2)C(=O)[C@@H]31` (stereo partly specified), for which the TGI is more than 100 µM.

In turn, `CN=c1sc2nc(C#N)c(C#N)nc2n1C` registered a TGI of 32.1 µM.

Compound `Cc1nc2ccccc2c(=O)n1/N=C(\N=Nc1cc(Cl)ccc1Cl)c1ccccc1` returned a TGI of more than 100 µM.

In turn, `CC(C)[C@H]1NC(=O)[C@H]2N=C(S[C@H]2C)[C@@H]2CCCN2C(=O)[C@H](Cc2ccccc2)NC(=O)[C@@H]2CSC(=N2)[C@@H](Cc2ccccc2)NC(=O)[C@@H]2CSC1=N2` returned a TGI of more than 50 µM.

In turn, `C1CCCN(NC2=NCCO2)CC1` had a TGI of more than 100 µM.

`COc1ccc(/C=N/NS(=O)(=O)c2ccccc2)cc1` gave a TGI of more than 100 µM.

As for `Clc1ccc(CN2CCCN(Cc3ccc(Cl)cc3)C2c2cc3ccccc3c3ccccc23)cc1`, the TGI was more than 100 µM.

The compound `CCOC(=O)c1nc2ccc(C(F)(F)F)cc2nc1Nc1ccc(OC)cc1` came in with a TGI of more than 100 µM.

Turning to `COc1cc(-c2nn(-c3cccc(NC(=O)CCN4CCN(c5ccccc5)CC4)c3)cc2-c2ccncc2)ccc1Cl`, the GI50 was 3.06 µM and the TGI was more than 100 µM.

In the case of `O=c1c2cc(O)ccc2n2nnc3ccc(NCCNCCO)c1c32`, the GI50 is 5.18 µM and 2.48 µM; the TGI was 40.3 µM and 10.7 µM.

`Cc1cc(O)c(/C=N/C(=S)Nc2ccc(S(N)(=O)=O)cc2)c(=O)o1`: the TGI was more than 100 µM.

As for `CC1=NN(c2nc(N)nc(/C(C#N)=C\c3ccc(-c4ccc([N+](=O)[O-])cc4)o3)n2)C(C)(C)C1`, the TGI was more than 100 µM.

For `COC(=O)C(=O)Nc1cc2c3c(c1)Oc1cccc4c1C3(C)c1c(cccc1O2)O4`, the TGI is more than 100 µM.

Consider `Cc1ccc(S(=O)(=O)N2CCNCCN(S(=O)(=O)c3ccc(C)cc3)CCNCC2)cc1`, for which the TGI was determined as 63.7 µM.

In turn, `CC1(C)OC(=O)C(=C2CCC(C(=O)Nc3cccc(C(F)(F)F)c3)N2)C(=O)O1` (stereo unspecified) gave a TGI of more than 100 µM.

Regarding `O=C(O)c1ccccc1NCn1c(=S)sc2ccccc21`, the TGI is more than 100 µM.

Regarding `COc1ccc2c(c1)C(=O)c1c-2c(OCCN(C)C)nc2cc(OC)c(OC)cc12`, the GI50 was 1.45 µM and the TGI stood at 43.3 µM.

Turning to `CCCCOc1ccc(CC(NC(=O)OC(C)(C)C)C(=O)NC(C)C(=O)NC(Cc2ccccc2)C(=O)NCC(N)=O)cc1` (stereo unspecified) (Boc-Y(nBu)AFG-NH2; configuration not given here), the TGI is more than 100 µM.

The compound `O=NNc1ccc(S(=O)(=O)c2ccc3ccccc3c2)cn1` showed a TGI of more than 100 µM.

In the case of `O=C1Nc2ccc3c(c2/C1=C\c1cc2c(cc1Br)OCO2)OCO3`, the GI50 was 0.846 µM and the TGI came out at 3.21 µM.

In turn, `O=[N+]1[C@H](c2ccccc2)[C@H](c2ccccc2)N1[O-]` registered a TGI of 31.4 µM.

Consider `O=c1[nH]cnc2n[nH]nc12`, for which the TGI is more than 100 µM.

Compound `C=C1C(=O)O[C@H]2C1C[C@H](O)[C@@]1(C)OC1CC[C@@]1(C)O[C@H]21` (stereo partly specified) returned a TGI of more than 100 µM.

Regarding `C/C(C=O)=C/[C@@]1(C)O[C@@H](C)[C@@](C)(O)[C@@H]1O`, the TGI was more than 100 µM.

With `O=C(Nc1ccccc1)Oc1ccc(C(=S)Nc2ccc(Br)cc2)cc1`, the TGI came out at 68.9 µM.

Compound `O=C(NCCNCCNC(=O)c1cc(-c2ccccc2)nc2ccccc12)c1cc(-c2ccccc2)nc2ccccc12` returned a TGI of 10.9 µM.

For the compound `CN(N=O)c1nc2c(C(N)=O)ncn2s1`, the TGI is more than 100 µM.

Compound `CC(=O)c1ccc(Nc2c3ccccc3nc3occc23)cc1` gave a TGI of 58.9 µM.

`COC(=O)C(=O)C(C(=O)C(=O)Nc1ccc(C)cc1C)c1nc2ccc(Cl)cc2[nH]c1=O` (stereo unspecified) had a TGI of more than 100 µM.

With `Cc1sc2nc3n(c(=O)c2c1C)N=CN(c1ccc(Cl)cc1)C3`, the TGI was more than 100 µM.

Consider `CSc1nc(=O)cnn1C`, for which the TGI is more than 100 µM.

Take `COCC(C(=O)OC1C/C=C/C=C/C(=O)OC(C(C)C(O)C(C)CCC(OC(=O)C(C)N(C)C)C(C)C(OC(C)=O)C(C)/C=C/N(C)C=O)C/C=C/C(OC)CC(C)C/C=C(\C)C(OC)CCC(C)C(O)C1C)N(C)C` (stereo unspecified): the GI50 is less than 0.0001 µM and the TGI is more than 1 µM.

Turning to `CN1CCc2ccccc2C(C(=O)c2ccc3c(c2)OCO3)C1=O` (stereo unspecified), the TGI was more than 100 µM.

For `Cn1nnc2c3c(N(CCO)CCO)ccnc3ccc21`, the TGI was more than 100 µM.

Compound `COc1cccc(/C=N\NC(=O)C(C)SC(C)C(=O)N/N=C/c2cccc(OC)c2)c1` (stereo unspecified) came in with a TGI of more than 60.4 µM.

`COC(=O)/C=C(\C)CCC1SC1(C)C` (stereo unspecified): the TGI was more than 100 µM.

Consider `OCC(O)C(O)C(O)C(O)c1nnc2c(-c3ccccc3)nc3ccccc3n12` (stereo unspecified), for which the GI50 is 32.3 µM and the TGI was more than 100 µM.

For the origin of these results see PubChem BioAssay (NCI).
